Measurements as given in the supplement of paper PMC3334620.
Whole data set: some 33,000 sequences, median “E-score (-0.5 to 0.5)” near -0.035, cut for the highest 2% near 0.35. The list shows a part of the results.

target: T1, Pdr3 (UniProt P33200); experiment: PBM E-score (8-mer binding enrichment) (E-score (-0.5 to 0.5)); higher = stronger / more preferred TF binding; most listed sequences are background and not binding sites; details: protein concentration: 200 nM; construct: GST-full length
T1 sequence: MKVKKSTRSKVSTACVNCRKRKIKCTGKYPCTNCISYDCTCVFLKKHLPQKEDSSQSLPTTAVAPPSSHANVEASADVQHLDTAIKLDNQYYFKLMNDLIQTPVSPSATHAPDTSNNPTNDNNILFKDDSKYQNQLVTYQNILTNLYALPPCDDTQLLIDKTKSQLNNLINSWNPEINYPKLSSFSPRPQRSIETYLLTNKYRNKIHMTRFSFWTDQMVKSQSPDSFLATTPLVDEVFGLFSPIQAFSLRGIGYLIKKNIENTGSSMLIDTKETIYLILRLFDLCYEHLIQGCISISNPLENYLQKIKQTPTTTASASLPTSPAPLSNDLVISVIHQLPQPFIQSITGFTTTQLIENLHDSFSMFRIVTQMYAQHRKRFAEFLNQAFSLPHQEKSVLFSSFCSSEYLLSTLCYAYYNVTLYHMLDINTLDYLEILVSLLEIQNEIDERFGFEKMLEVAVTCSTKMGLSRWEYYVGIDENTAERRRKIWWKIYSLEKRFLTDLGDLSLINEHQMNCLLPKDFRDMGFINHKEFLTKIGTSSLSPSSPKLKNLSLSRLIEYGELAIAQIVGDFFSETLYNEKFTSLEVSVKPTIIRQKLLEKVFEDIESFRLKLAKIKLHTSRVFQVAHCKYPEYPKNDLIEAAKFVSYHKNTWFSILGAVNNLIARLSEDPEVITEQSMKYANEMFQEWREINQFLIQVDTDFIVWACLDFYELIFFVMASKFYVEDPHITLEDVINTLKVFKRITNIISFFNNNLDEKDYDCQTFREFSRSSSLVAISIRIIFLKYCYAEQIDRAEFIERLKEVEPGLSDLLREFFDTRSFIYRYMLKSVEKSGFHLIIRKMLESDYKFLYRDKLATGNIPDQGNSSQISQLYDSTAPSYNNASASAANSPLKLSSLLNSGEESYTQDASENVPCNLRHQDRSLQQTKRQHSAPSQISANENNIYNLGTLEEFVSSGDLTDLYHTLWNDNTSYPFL
In short: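 Full-length yeast transcription factors or their DNA-binding domains, GST-tagged and expressed with PURExpress, were applied at about 100-200 nM to universal all-10-mer Agilent arrays. These arrays had been made double-stranded by primer extension on fresh or once-stripped slides. Detection used fluorescent anti-GST, normalisation used masliner, and E-scores for ungapped eight-base words pooled with reverse complements came from the Universal PBM Analysis Suite.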

Sequence	PBM E-score
GACGCTAA	-0.213
ATCTAGTC	-0.00378
AAAACTGT	-0.0893
AAACTTAC	-0.119
AGCTAAAC	-0.256
CGTCCTCC	0.0652
CGTTATGA	-0.0992
CGGTCACG	0.00048
GCCGGCTA	0.248
AGCAAACC	0.0426
ACGGTCCC	0.117
CTGGAACA	0.117
GCGCTGCA	0.013
GTCCCGCA	0.229
CCCGCTGC	0.142
CGCGCTGC	0.00597
ACAGGGCA	-0.0902
GTCTTATA	-0.143
GGTATTCA	0.0285
CACCTGTC	-0.00221
AGCACTCC	0.127
CAGATAAG	-0.172
ACGCGAAA	-0.109
CTCGATCA	0.00171
AGTTGATA	0.0574

Sequence	PBM E-score
AGTCACTC	-0.123
GACTCACA	-0.189
CTGAACAG	-0.0635
GGATTGCC	0.15
ATTTAAAT	-0.0161
ATGACTCG	-0.00485
ACACGAGC	-0.203
ACAATCCA	-0.0121
AACTTAGC	-0.0982
AGATAAAG	-0.0658
CATTCGCG	0.196
CGACGGGC	0.276
CTAACGGC	-0.00464
CAAGCATG	-0.106
CAATTCAA	-0.0576
ACCTTAAT	-0.126
AATCGGGC	0.00554
AGTGACGG	0.195
ACTTTGCC	0.0636
AGAGAAAA	0.0894
ATTGGACG	-0.0498
GTATATAA	-0.0896
GTCAGTGA	-0.0573
TCCGATCA	0.322
ACATATAT	0.0497

Sequence	PBM E-score
ACGACGGC	0.04
CACTACGG	0.222
AGTGTTTA	-0.09
CAGCTGCC	0.0916
AGCCAAGA	-0.15
CCCTTTGC	-0.105
ATTTCGGC	0.169
TGGACTAA	-0.183
ACACACGT	-0.121
AGCAAAAA	-0.15
GGATGACA	0.13
ATCCAAGG	0.00676
CTTAGTTA	-0.0476
ACAGTCGG	0.0252
TAACACGA	0.0333
AGTCCTAA	-0.183
ACTCTGTG	-0.153
CCACATCA	-0.0319
ATGGATTC	0.0503
AACCCCGG	0.312
ACCCCTGA	-0.0444
AAGGTCAT	-0.149
CGGTGCCC	0.104
AATTGAGT	0.0708
AAAAAAGT	-0.04

Sequence	PBM E-score
CTGTAACA	-0.281
ACTATCGG	0.147
CAATGTCA	-0.0363
CTTCCGTA	0.379
ACGTAATC	-0.0988
TCACGGCA	0.193
CCGAGGCG	0.23
GCGGAAGC	0.347
AGTTGGCA	-0.0295
ACTTCACT	0.027
AATAAGGA	-0.256
ATTTAAAG	0.19
GCAATGAA	0.00457
GTGATAGA	-0.148
CATTCCAC	0.0732
CTGCTCAA	-0.197
AACCATAG	0.0469
GGCAAGCA	-0.179
ACTGTGAC	-0.0328
GGCTTAGA	-0.321
AACTCCAG	-0.12
CTGGGACC	-0.197
CCGCGATC	0.194
TATTTCCA	0.0517
CGGAGCCC	0.208

Sequence	PBM E-score
AGAAGACA	-0.219
AGGAGAGC	-0.326
CTATAGCA	-0.0675
AAGCGTTG	-0.12
ACCGTGAC	-0.0489
ACTTGACC	-0.154
CGTGGTAC	-0.143
AAAAATGG	0.0817
TCCATACA	-0.0458
ATACAGTA	-0.085
CCGGGCAG	0.316
CAGCCGCG	0.337
GAATGGCC	0.225
CTCCGGTC	0.328
CATCGAGC	0.0426
CAGTCGTC	-0.3
CCTCCTGA	-0.262
GGCTCACA	-0.0875
GACACGTA	-0.284
CAGCGTAG	-0.0303
CATGTCGG	0.191
AAGGACCG	0.0679
AGCGTCTC	-0.00572
CATTCAAG	-0.123
CTACTTAA	-0.268

Sequence	PBM E-score
CCTCCGTA	0.222
AGTCCTAG	-0.325
GAGTATGC	0.0203
GCACCCAA	0.132
ATGGGTTG	0.113
CTAAGCAG	-0.113
TCAATCCA	0.00934
GCGATCAA	-0.0789
GTCATGTA	-0.145
GATTGGCA	-0.0565
ACGAGCCT	-0.285
CTACCCTC	-0.121
ACCAGCAA	0.0732
AGCTAGAC	-0.103
CGTAGGCC	-0.142
GCCCTCGA	-0.315
AGCGTATC	-0.057
GGACTTAC	0.00247
ATGAGATA	0.0428
CCCGTCTC	0.0507
TCCGAGGA	0.354
CCGGTCCG	0.414
CCAGCAAC	-0.00856
CGGATTTA	0.281
AGAGGCAT	0.0819

Sequence	PBM E-score
AGACATAC	-0.058
ACTCCGGC	0.315
GATGCTAA	0.128
AAGCATAA	-0.107
GACAACTA	0.0917
ATCGTAGC	-0.143
AAAGAGAC	-0.0306
ATGCATCG	0.193
AGCGTCCG	0.0784
AGTGTGAA	-0.0237
GAATGTTA	0.178
AATTTAGG	0.0463
ACGGCGAC	0.182
GGTCCGAA	0.319
ACACCAAC	-0.201
GCGGAACC	0.482
ACGCTACA	-0.0745
TCACAGGA	-0.113
CCATCTTC	-0.014
TACATATA	0.0592
AGACTAGA	-0.266
TGTTGTAA	-0.00547
